# In the supplement of paper PMC8728848:
# This is one part of the list.
# Tests used:
# Experiment in all cases: glycan array binding signal (z-score within array); higher = stronger binding
# Conditions in all cases: glycan notation: IUPAC condensed, linker removed
# Gal6S(b1-4)Glc = target: Gal6S(b1-4)Glc
# In short: (§1)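 Glycan array data were curated from 3228 arrays in the Consortium for Functional Glycomics database and kept only where the protein sequence was available. Glycan names were converted to IUPAC-condensed notation, and columns mapping to the same glycan were averaged. The binding signal is a within-array Z-score, averaged across arrays of the same protein sequence at different concentrations or buffers and across linkers. Negative Z-scores can be read as non-binding.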
# Gal6S(b1-4)Glc6S = target: Gal6S(b1-4)Glc6S
# In short: as §1
# Gal6S(b1-4)GlcNAc = target: Gal6S(b1-4)GlcNAc
# In short: as §1
# Gal6S(b1-4)GlcNAc6S = target: Gal6S(b1-4)GlcNAc6S
# In short: as §1
# GalNAc(a1-3)Gal = target: GalNAc(a1-3)Gal
# In short: as §1
# GalNAc(a1-3)GalNAc = target: GalNAc(a1-3)GalNAc
# In short: as §1
# [1] = target: GalNAc(a1-3)GalNAc(b1-3)Gal(a1-4)Gal(b1-4)Glc
# In short: as §1
# [2] = target: GalNAc(a1-3)GalNAc(b1-3)Gal(a1-4)Gal(b1-4)GlcNAc
# In short: as §1
# GalNAc(b1-3)Gal = target: GalNAc(b1-3)Gal
# In short: as §1
# [3] = target: GalNAc(b1-3)Gal(a1-4)Gal(b1-4)GlcNAc
# In short: as §1
# [4] = target: GalNAc(b1-3)Gal(a1-4)Gal(b1-4)GlcNAc(b1-3)Gal(b1-4)Glc
# In short: as §1
# [5] = target: GalNAc(b1-3)Gal(a1-6)Gal(b1-4)Glc
# In short: as §1
# GalNAc(b1-3)GalNAc = target: GalNAc(b1-3)GalNAc
# In short: as §1
# GalNAc(b1-3)GlcNAc = target: GalNAc(b1-3)GlcNAc
# In short: as §1
# GalNAc(b1-4)Gal(b1-4)Glc = target: GalNAc(b1-4)Gal(b1-4)Glc
# In short: as §1
# GalNAc(b1-4)GlcNAc = target: GalNAc(b1-4)GlcNAc
# In short: as §1
# [6] = target: GalNAc(b1-4)GlcNAc(b1-2)Man
# In short: as §1
# [7] = target: GalNAc(b1-4)GlcNAc(b1-2)Man(a1-3)[GalNAc(b1-4)GlcNAc(b1-2)Man(a1-6)]Man(b1-4)GlcNAc(b1-4)GlcNAc
# In short: as §1
# [8] = target: GalNAc(b1-4)GlcNAc(b1-3)GalNAc(b1-4)GlcNAc
# In short: as §1
# GalNAc(b1-4)GlcNAc6S = target: GalNAc(b1-4)GlcNAc6S
# In short: as §1
# GalNAc(b1-6)GalNAc = target: GalNAc(b1-6)GalNAc
# In short: as §1
# GalNAc3S(b1-4)GlcNAc = target: GalNAc3S(b1-4)GlcNAc
# In short: as §1
# GalNAc3S(b1-4)GlcNAc3S = target: GalNAc3S(b1-4)GlcNAc3S
# In short: as §1
# [9] = target: GalNAc3S(b1-4)[Fuc(a1-3)]GlcNAc
# In short: as §1
# GalNAc4S6S(b1-4)GlcNAc = target: GalNAc4S6S(b1-4)GlcNAc
# In short: as §1
# GalNAc6S(b1-4)GlcNAc = target: GalNAc6S(b1-4)GlcNAc
# In short: as §1
# Glc(a1-4)Glc = target: Glc(a1-4)Glc
# In short: as §1
# [10] = target: Glc(a1-4)Glc(a1-4)Glc(a1-4)Glc
# In short: as §1
# Glc(a1-6)Glc(a1-6)Glc = target: Glc(a1-6)Glc(a1-6)Glc
# In short: as §1
# [11] = target: Glc(a1-6)Glc(a1-6)Glc(a1-6)Glc
# In short: as §1
# Glc(b1-4)Glc = target: Glc(b1-4)Glc
# In short: as §1
# Glc(b1-6)Glc = target: Glc(b1-6)Glc
# In short: as §1
# GlcA(b1-3)Gal = target: GlcA(b1-3)Gal
# In short: as §1
# GlcA(b1-3)GlcNAc = target: GlcA(b1-3)GlcNAc
# In short: as §1
# GlcA(b1-6)Gal = target: GlcA(b1-6)Gal
# In short: as §1
# [12] = target: GlcA3S(b1-3)Gal(b1-4)GlcNAc(b1-2)Man
# In short: as §1
# [13] = target: GlcA3S(b1-3)Gal(b1-4)GlcNAc(b1-3)Gal(b1-4)Glc
# In short: as §1
# [14] = target: GlcNAc(a1-3)Gal(b1-4)GlcNAc
# In short: as §1
# [15] = target: GlcNAc(a1-4)Gal(b1-3)GlcNAc
# In short: as §1
# [16] = target: GlcNAc(a1-4)Gal(b1-4)GalNAc
# In short: as §1
# [17] = target: GlcNAc(a1-4)Gal(b1-4)GlcNAc
# In short: as §1
# [18] = target: GlcNAc(a1-4)Gal(b1-4)GlcNAc(b1-3)Gal(b1-4)Glc
# In short: as §1
# [19] = target: GlcNAc(a1-4)Gal(b1-4)GlcNAc(b1-3)Gal(b1-4)GlcNAc
# In short: as §1
# [20] = target: GlcNAc(a1-4)Gal(b1-4)GlcNAc(b1-3)Gal(b1-4)GlcNAc(b1-3)Gal(b1-4)GlcNAc
# In short: as §1
# [21] = target: GlcNAc(a1-4)Gal(b1-4)GlcNAc(b1-3)Gal(b1-4)[Fuc(a1-3)]GlcNAc(b1-3)Gal(b1-4)[Fuc(a1-3)]GlcNAc
# In short: as §1
binder,measurement,setting,value
"CrataBL (Crataeva tapia), C0HJA4 (protein) AILTGVPYYILPSTSRAGFSPDNLRKNTSQLSCPLDLITQLRFPRRIGVPVIFTPQNSSLKVVPLSHNLNIHTCSDLWFCPESKIWTVKSSLTHGGSVVTTGGTFRSLGSWFRIERHGDSYKLVHCPRGSTPCRDVGIETVGGGGRRYLAPRDRPLAVRFTRASG",glycan array binding signal (z-score),Gal6S(b1-4)Glc,0.117
same,glycan array binding signal (z-score),Gal6S(b1-4)Glc6S,2.96
same,glycan array binding signal (z-score),Gal6S(b1-4)GlcNAc,0.307
same,glycan array binding signal (z-score),Gal6S(b1-4)GlcNAc6S,5.29
same,glycan array binding signal (z-score),GalNAc(a1-3)Gal,-0.242
same,glycan array binding signal (z-score),GalNAc(a1-3)GalNAc,-0.381
same,glycan array binding signal (z-score),[1],-0.362
same,glycan array binding signal (z-score),[2],-0.222
same,glycan array binding signal (z-score),GalNAc(b1-3)Gal,-0.46
same,glycan array binding signal (z-score),[3],-0.104
same,glycan array binding signal (z-score),[4],-0.134
same,glycan array binding signal (z-score),[5],-0.528
same,glycan array binding signal (z-score),GalNAc(b1-3)GalNAc,-0.27
same,glycan array binding signal (z-score),GalNAc(b1-3)GlcNAc,-0.306
same,glycan array binding signal (z-score),GalNAc(b1-4)Gal(b1-4)Glc,0.515
same,glycan array binding signal (z-score),GalNAc(b1-4)GlcNAc,0.012
same,glycan array binding signal (z-score),[6],-0.071
same,glycan array binding signal (z-score),[7],-0.47
same,glycan array binding signal (z-score),[8],-0.278
same,glycan array binding signal (z-score),GalNAc(b1-4)GlcNAc6S,1.01
same,glycan array binding signal (z-score),GalNAc(b1-6)GalNAc,-0.223
same,glycan array binding signal (z-score),GalNAc3S(b1-4)GlcNAc,0.332
same,glycan array binding signal (z-score),GalNAc3S(b1-4)GlcNAc3S,1.59
same,glycan array binding signal (z-score),[9],0.423
same,glycan array binding signal (z-score),GalNAc4S6S(b1-4)GlcNAc,5.23
same,glycan array binding signal (z-score),GalNAc6S(b1-4)GlcNAc,0.105
same,glycan array binding signal (z-score),Glc(a1-4)Glc,-0.279
same,glycan array binding signal (z-score),[10],0.623
same,glycan array binding signal (z-score),Glc(a1-6)Glc(a1-6)Glc,-0.469
same,glycan array binding signal (z-score),[11],0.298
same,glycan array binding signal (z-score),Glc(b1-4)Glc,-0.413
same,glycan array binding signal (z-score),Glc(b1-6)Glc,-0.431
same,glycan array binding signal (z-score),GlcA(b1-3)Gal,1.41
same,glycan array binding signal (z-score),GlcA(b1-3)GlcNAc,0.158
same,glycan array binding signal (z-score),GlcA(b1-6)Gal,1.13
same,glycan array binding signal (z-score),[12],1.19
same,glycan array binding signal (z-score),[13],0.289
same,glycan array binding signal (z-score),[14],-0.495
same,glycan array binding signal (z-score),[15],-0.374
same,glycan array binding signal (z-score),[16],0.352
same,glycan array binding signal (z-score),[17],-0.219
same,glycan array binding signal (z-score),[18],-0.325
same,glycan array binding signal (z-score),[19],0.049
same,glycan array binding signal (z-score),[20],-0.479
same,glycan array binding signal (z-score),[21],0.807
